US6930207B2, “Trifluoroacetylalkyl-substituted phenyl, phenol and benzoyl compounds and related methods of treatment” (Solvay Pharmaceutical GmbH, priority 2001, dated 2005)
Some of these results come from one statement about several compounds together.

molecular target: T1, porcine pancreatic lipase (Sus scrofa, UniProt P00591); assay: in vitro pancreatic lipase activity test (lipolytic release of p-nitrophenol from p-nitrophenyl palmitate, extinction at 405 nm); format: biochemical; settings: range of examples with mixed concentrations: 0.727 μM unless otherwise stated; Ex. 17, 28, 29, 32, 39, 40, 47, 48, 56, 58, 59 at 0.364 μM; 21, 35, 37, 38, 49, 50, 51, 54, 55, 64 at 0.182 μM; 46, 61, 62, 65 at 0.091 μM
T1 sequence (P00591 1-450): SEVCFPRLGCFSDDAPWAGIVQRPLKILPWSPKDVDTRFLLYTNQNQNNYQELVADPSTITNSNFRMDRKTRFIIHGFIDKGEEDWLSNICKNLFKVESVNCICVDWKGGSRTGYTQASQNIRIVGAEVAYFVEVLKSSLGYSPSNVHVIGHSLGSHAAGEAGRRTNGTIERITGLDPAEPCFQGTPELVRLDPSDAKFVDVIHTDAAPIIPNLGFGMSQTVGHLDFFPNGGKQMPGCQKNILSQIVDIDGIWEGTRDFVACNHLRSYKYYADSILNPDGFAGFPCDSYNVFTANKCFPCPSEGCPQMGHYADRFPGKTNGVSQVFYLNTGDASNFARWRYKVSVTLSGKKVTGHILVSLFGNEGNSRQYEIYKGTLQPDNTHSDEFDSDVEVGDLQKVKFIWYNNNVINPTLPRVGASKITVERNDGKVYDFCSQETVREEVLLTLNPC
Method: In this test the inhibition of the lipolytic action of porcine pancreatic lipase with respect to the test substrate p-nitrophenyl palmitate under the influence of the test substances of Formula I was determined. Therein, the change in the relative extinction of the investigated solutions caused by the lipolytic release of p-nitrophenol from p-nitrophenyl palmitate was measured. The residual activity of the lipase remaining after the addition of the test substances is given in percent, relative to the original initial lipolytic activity. The example numbers quoted relate to the preparation examples given below.
The reagents given below are prepared: • 1. Substrate Solution • For the preparation of a “solution A”, 45 mg p-nitrophenyl palmitate was dissolved in 15 ml isopropanol by sonication with ultrasound. For the preparation of a “solution B” 310 mg Na-deoxycholate dry substance and 150 mg gum arabic were dissolved in 135 ml 0.05 M sodium phosphate buffer (pH=8.0). 5 minutes before the test was performed, 9 ml “solution B” was mixed with 1 ml “solution A” to form a “solution C” and brought to a temperature of 38° C. • 2. Pancreatic Lipase Solution • 100 mg FIP-lipase standard LS7 (porcine pancreatic lipase, 36,700 FIP units/g) were dissolved in 50 ml ice-cold 1%-strength aqueous sodium chloride solution and filtered through a 0.2 μm-syringe filter. After determination of the lipase activity in accordance with FIP, the solution was set to an activity of 40 FIP units/ml with 1%-strength aqueous sodium chloride solution. Dilute pancreatic lipase solutions which had activities of in each case 10, 20 and 30 FIP units/ml were also prepared from the pancreatic lipase solution for a calibration series by diluting with 1%-strength aqueous sodium chloride solution. • 3. Inhibitor Solutions • The lipase-inhibitory compounds of Formula I were dissolved in various concentrations in dimethyl sulfoxide (DMSO), so that between 2.0 and 800 nmol of the inhibitor were present in 100 μl inhibitor solution. Pure DMSO was used to determine the blank reading. Performance of the Test
100 μl of the inhibitor solution of a given concentration prepared as described above was temperature-controlled for 5 minutes in the cell changer of a photometer (Biochrom 4060). Then 1 ml of the above “solution C” was added with stirring. Then the reaction was started by addition of 100 μl pancreatic lipase solution with stirring. 2 minutes after the start of the reaction, the extinction of each sample was detected for 4 minutes at 405 nm.
In each case, in addition to the sample measurement, a calibration series was also measured to determine the lipase activity. […] The calibration series served to determine the lipase activity. To determine the calibration series, the lipase units used were plotted against the extinction values (dE/min) determined in each case. Using these calibration lines and the extinction values determined for the respective incubation batches, the lipase activity can be determined for each sample. […] To determine the blank reading, 100 μl DMSO were mixed with 1 ml “solution C” and the reaction was started by addition of 100 μl of a lipase solution.
The measured value of the photometer per batch (dE/min.) is yielded by the difference in the extinction values after the second and sixth minute (dE) divided by the measuring time (dt=4 min.). The blank reading is determined analogously and then subtracted from the measured value. The residual activity can be read off via the calibration line by means of the dE value calculated in this manner.
In the pancreatic lipase activity test set forth above, the test substances given below each in a concentration (c) of 0.727 μM (unless otherwise stated) caused an inhibition of the lipase activity to the fraction of the original initial activity given below. The compounds of Examples 17, 28, 29, 32, 39, 40, 47, 48, 56, 58 and 59 were measured in a concentration of 0.364 μM each time. […]

SMILES	residual lipase activity, relative to the original initial lipolytic activity
O=C(CCCOc1ccc(COCCC2CCCCC2)cc1)C(F)(F)F [Example 20]	at most 60%
O=C(CCCCCc1ccc(OCc2ccccc2)cc1)C(F)(F)F [Example 29]	at most 60%
O=C(CCCCc1ccc(OCCCc2ccccc2)cc1)C(F)(F)F [Example 45]	at most 60%
CCCCCCCCCCCOc1cccc(CCCCC(=O)C(F)(F)F)c1 [Example 46]	at most 60%
COc1ccc(C(=O)C(CCCc2ccccc2)CCC(=O)C(F)(F)F)cc1 (stereo not drawn) [Example 47]	at most 60%
CC(C)CCCc1ccc(CCCCC(=O)C(F)(F)F)cc1 [Example 48]	at most 60%
O=C(CCCCc1ccc(OCCCCOc2ccccc2)cc1)C(F)(F)F [Example 49]	at most 60%
CC(C)CCCc1cccc(CCCCC(=O)C(F)(F)F)c1 [Example 50]	at most 60%
CCCCCCCCCCC(CCC(=O)C(F)(F)F)C(=O)c1ccc(OC)cc1 (stereo not drawn) [Example 51]	at most 60%
O=C(CCCCc1ccc(-c2ccccc2)cc1)C(F)(F)F [Example 56]	at most 60%
O=C(CCCC(=O)C(F)(F)F)c1ccc2c(c1)CCO2 [Example 61]	at most 20%

same assay, conditions: test substance concentration 0.091 μM; substrate p-nitrophenyl palmitate

SMILES	residual lipase activity, relative to the original initial lipolytic activity
O=C(CCCC(=O)C(F)(F)F)c1ccc2c(c1)CCO2 [Example 61]	at most 60%

same assay, conditions: test substance concentration 0.182 μM; substrate p-nitrophenyl palmitate

SMILES	residual lipase activity, relative to the original initial lipolytic activity
O=C(CCCCc1ccc(OCCCCOc2ccccc2)cc1)C(F)(F)F [Example 49]	at most 35%

same assay, conditions: test substance concentration 0.364 μM; substrate p-nitrophenyl palmitate

SMILES	residual lipase activity, relative to the original initial lipolytic activity
CCCCCCCCOc1ccc(OCCCC(=O)C(F)(F)F)cc1 [Example 40]	at most 20%
COc1ccc(CCc2ccccc2)cc1C(=O)CCCC(=O)C(F)(F)F [Example 58]	at most 35%

same assay, conditions: test substance concentration (c) 0.727 μM; substrate p-nitrophenyl palmitate

SMILES	residual lipase activity, relative to the original initial lipolytic activity
O=C(CCCCc1ccccc1)C(F)(F)F [Example 7]	at most 60%
O=C(CCCc1ccc(OCc2ccccc2)cc1)C(F)(F)F [Example 12]	at most 60%
O=C(CCCCC(=O)C(F)(F)F)c1ccccc1 [Example 13]	at most 60%
O=C(CCc1ccc(OCc2ccccc2)cc1)C(F)(F)F [Example 14]	at most 60%
COc1ccc(CCCCCC(=O)C(F)(F)F)cc1 [Example 31]	at most 60%
O=C(CCCCc1ccc(OCCCc2ccccc2)cc1)C(F)(F)F [Example 45]	at most 35%
